Data reported in PubChem BioAssay AID493014 (National Center for Advancing Translational Sciences (NCATS), 2011).
About 170 (0.05%) of roughly 340,000 compounds were called active. Roughly 26% stayed inconclusive and do not appear here. Calls follow the shape of the dose curve; as a rule, active = well fitted inhibition curve with a large enough effect in the signal ratio, with a control signal flat (not every such curve was filed as active); inconclusive = small, poorly fitted or top-dose-only effect, or effect the other way, or a change in a side signal; inactive = flat fitted curve, though single readings scatter; the % refers to the signal ratio. The entries are a selection whose mix differs from that of the whole data set.

assay: qHTS Assay to Find Inhibitors of Chronic Active B-Cell Receptor Signaling; conditions: ABC-DLBCL IkBa-CBG/CBR reporter, luminescence ratio (green luciferase fused to IkBa over red control in TMD8 lymphoma cells), 4 h; series mostly up to 46.1 µM; activity change, negative = inhibition: at the top concentration
Text: NIH Molecular Libraries Probe Production Network [MLPCN] NIH Chemical Genomics Center [NCGC] MLPCN Grant: 1 R03 DA031086-01A1 PI Name: Dr. R. Eric Davis NCGC Assay Overview: Diffuse large B-cell lymphoma (DLBCL) is the most common category of non-Hodgkin lymphoma, with ~20,000 new cases per year in the United States. DLBCL should be regarded as a collection of different neoplasms. Microarray gene expression analysis has defined two principal types of DLBCL, named for their similarity to normal B cell stages or activation states: a germinal center B-cell (GCB) type, and an activated B-cell (ABC) type. In ABC-DLBCL, a constitutive high-level activity of the NF-kappaB family of transcription factors has been observed (1) and NF-kappaB target genes are more highly expressed in ABC primary tumors than in GCB tumors. Functional studies have shown a constitutive high-level activity of the IkappaB (inhibitor of kappa-B) kinase (IKK) complex. […] Further analysis of DLBCL primary tumors for NF-kappaB target gene expression imply that although CARD11 is required for constitutive IKK activity in all ABC-DLBCL lines, mutations in CARD11 may be the root cause of IKK activation only in lines or tumors with such mutations. In other words, CARD11 mutations may explain NF-kappaB activation in only 10% of ABC-DLBCL cases. […] This process has been termed 'chronic active BCR signaling' (CABS). The goal of this screen is to find small-molecule inhibitors of the CABS pathway found in ABC-DLBCL lines using a cell-based assay that measures IkappaBalpa stability, which has already been extensively validated in the OCI-Ly3 line (PubChem AID:445; REF: 4). […] The assay uses green (CBG68) and red (CBR) emitting beetle luciferases [Chroma-GloTM developed by Promega Corp.] where the green luciferase is fused to IkappaBalpha and the red luciferase is present in its native state. Both luciferase genes are stably present in the TMD8 human ABC DLBCL cell line, but their expression is under the control of tetracycline-inducible promoters. Following the addition of doxycycline to induce expression of the luciferases, the green luminescence in control cultures rises only slowly because the CBG fusion partner IkappaBalpha is targeted by IKK activity for rapid degradation. In contrast, green luminescence rises rapidly in the presence of proteasome inhibitors or IKK inhibitors. The rise in red luminescence of CBR is not affected by proteasome or IKK inhibitors, and serves as normalization for cell number and nonspecific effects. Compounds were screened as a concentration-titration series that ranged from 46 uM to 3 nM.
NCGC Assay Protocol Summary: Cells were seeded in 1536-well plates at 5000 cells/4uL in IMDM medium containing 0.5% FBS, w/o phenol red, 1% penicillin/streptomycin. Then, 23 nL of compounds or DMSO were delivered to each well using a pin tool. One uL 20ng/ml doxycycline was then dispensed into white solid 1536-well plates and the plates were incubated at 37C/5% C02 in a cell incubator for 4 hrs. Then 4 uL luminescent substrate mix (in-house prepared: 150 mM Tris-Cl, pH 7.6, 3 mM MgCl2, 1% Triton X-100, 5 mM DTT, 0.2 mM CoA, 0.15 mM ATP, 5 mM D-luciferin, final concentrations) was added to each well. The plate was incubated at r.t. for 10-15 min. The plates were measured on a ViewLux plate reader for green luminescence (540/20 nm filter) and red luminescence (618/8 nm filter). The green and red luminescent signals were corrected for red and green luminescence filter overlap using previously determined filter calibration constants (determined using the procedure outlined in the Promega Technical Manual; REF 4). The %Activity was determined from the ratio of corrected green/red luminescent values. MG132 were used as control. […] Red luminescent %Activity was normalized to the difference between red luminesence in basal cells (0%Activity) and zero luminescence (-100% Activity). […]
Potency is read from the fitted curve at half-maximal effect.

Structure (SMILES)	activity change, negative = inhibition	Potency
c1cc2c(cc1[C@H]1OC[C@H]3[C@@H]1CO[C@H]3c1ccc3c(c1)OCO3)OCO2	inactive: 0.476%	
C[N+]1(C)C2CC[C@H]1CC(OC(=O)C(CO)c1ccccc1)C2 (stereo not given in full)	inactive: 0.0514%	
C[C@]12CCC(=O)C=C1CC[C@@H]1C2CC[C@]2(C)C(=O)CCC12 (stereo not given in full)	inactive: -6.49%	
O=[N+]([O-])c1cc(Cl)c2cccnc2c1O		active: 11.2 µM
CCOC(=O)[C@@H]1[C@H]2COc3ccc(Br)cc3[C@H]2N2C(=O)N(c3cccc(C)c3)C(=O)[C@]12C	inactive: 0.459%	
COc1ccc2[nH]c3c(c2c1)CCNC3C (stereo not given)	inactive: 2.91%	
CC(=O)OCC[N+](C)(C)C		inactive
C[C@]12CCC3C(CC[C@H]4C[C@@H](O)CC[C@]34C)C1C[C@@H](Br)[C@@H]2O (stereo not given in full)	inactive: 4.05%	
C[C@]12CCC(=O)C=C1CCC1C2CC[C@@]2(C)C1CC[C@]2(C)O (stereo not given in full)	inactive: -1.57%	
CC[n+]1c(/C=C2/C=C(C)CC(C)C2)sc2ccccc21 (stereo not given)	inactive: -5.13%	
COc1ccc2c(c1OC)C(=O)O[C@H]2[C@@H]1c2cc3c(cc2CCN1C)OCO3	inactive: -3.16%	
CN(C)[C@@H]1C(=O)C(C(N)=O)=C(O)[C@@]2(O)C(=O)C3=C(O)c4c(O)cccc4[C@@](C)(O)[C@H]3[C@H](O)[C@@H]12		inactive
CNC(=O)Oc1ccc2c(c1)[C@]1(C)CCN(C)C1N2C (stereo not given in full)	inactive: 2.24%	
Clc1ccc(COC(Cn2ccnc2)c2ccc(Cl)cc2Cl)c(Cl)c1 (stereo not given)	inactive: -6.25%	
CN1CCc2cccc3c2[C@H]1Cc1ccc(O)c(O)c1-3	inactive: -6.37%	
Cc1cc(/C=C2/SC(=O)NC2=O)c(C)n1-c1ccc(N2CCOCC2)cc1	inactive: 0.182%	
CCCC[N+]1(C)C2CC(OC(=O)C(CO)c3ccccc3)CC1C1OC12 (stereo not given)	inactive: 0.87%	
CN(C)[C@@H]1C(=O)C(C(N)=O)=C(O)[C@@]2(O)C(=O)C3=C(O)c4c(O)cccc4[C@@](C)(O)C3[C@H](O)C12 (stereo not given in full)		inactive

Structure (SMILES)	activity change, negative = inhibition	Potency
CC(C)C[C@H]1C(=O)N2CCC[C@H]2[C@]2(O)O[C@](NC(=O)[C@@H]3C=C4c5cccc6[nH]cc(c56)C[C@H]4N(C)C3)(C(C)C)C(=O)N12	inactive: 4.26%	
C[C@@H]1CCC2[C@@H](C)C(=O)O[C@@H]3OC4(C)CCC1[C@@]23OO4 (stereo not given in full)	inactive: 0.539%	
NC(N)=Nc1ccc2[nH]c3c(c2c1)C[C@@]1(O)[C@H]2Cc4ccc(O)c5c4[C@@]1(CCN2CC1CC1)[C@H]3O5		active: 23.1 µM
COc1ccc2c(c1OC)C(=O)O[C@@H]2[C@H]1c2cc3c(cc2CCN1C)OCO3	inactive: -6.46%	
O=C(O)CCCCC1SCC2NC(=O)NC21 (stereo not given)	inactive: -0.483%	
CC1CCC2C(C)C(=O)OC3OC4(C)CCC1C32OO4 (stereo not given)	inactive: 1.69%	
CCN(CC)CCN=Cc1c(O)n(Cc2ccccc2)c(=O)[nH]c1=O	inactive: 5.41%	
C[N+]1(C)C2CCC1CC(OC(=O)C(CO)c1ccccc1)C2 (stereo not given)	inactive: 12.9%	
C[C@]12CC[C@H]3[C@@H](CCC4=CC(=O)CC[C@@]43C)[C@@H]1CC[C@@H]2O	inactive: 0.966%	
O=C(Cn1c[n+](CC(=O)c2ccc([N+](=O)[O-])cc2)cn1)c1ccc([N+](=O)[O-])cc1	inactive: -0.651%	
CCN1C[C@]2(COC(=O)c3ccccc3N)CC[C@H](OC)C34[C@@H]5C[C@H]6[C@H](OC)[C@@H]5[C@](O)(C[C@@H]6OC)[C@@](O)([C@H]13)[C@@H](OC)[C@@H]42	inactive: 6.94%	
O=C(OCC(=O)c1ccc([N+](=O)[O-])cc1)/C(=C/c1ccc(Cl)cc1)NC(=O)c1ccccc1	inactive: -5.55%	
COc1ccc(NC(=O)Cn2c(=O)oc3ccccc32)cc1	inactive: 0.376%	
CC(C)c1ccc(N2C(=O)NC(=O)/C(=C\C=C\c3ccco3)C2=O)cc1	inactive: 14.1%	
CC[C@]12C=CCN3CCC4(c5cc(Br)c(OC)cc5N(C)C4[C@@](O)(C(=O)OC)[C@@H]1OC(C)=O)C32 (stereo not given in full)	inactive: -0.254%	
C[C@H](CCC(=O)O)[C@H]1CC[C@H]2[C@@H]3[C@@H](O)C[C@@H]4C[C@H](O)CC[C@]4(C)[C@H]3CC[C@]12C	inactive: 5.75%	
CCSc1nnc(C(N)Cc2ccccc2)o1 (stereo not given)	inactive: 1.57%	
